Tests used:
Assay in all cases: cell-based or functional assay
[1] = biological target: human insulin receptor isoform B (human, UniProt P06213)
[2] = biological target: human insulin receptor isoform A (human, UniProt P06213-2)
Rat IR = Rat IR (rat, UniProt P15127 27-1383)
Pig IR = Pig IR (pig, UniProt F1SCL0 28-1382)

Chain of Rat IR (P15127 27-1383): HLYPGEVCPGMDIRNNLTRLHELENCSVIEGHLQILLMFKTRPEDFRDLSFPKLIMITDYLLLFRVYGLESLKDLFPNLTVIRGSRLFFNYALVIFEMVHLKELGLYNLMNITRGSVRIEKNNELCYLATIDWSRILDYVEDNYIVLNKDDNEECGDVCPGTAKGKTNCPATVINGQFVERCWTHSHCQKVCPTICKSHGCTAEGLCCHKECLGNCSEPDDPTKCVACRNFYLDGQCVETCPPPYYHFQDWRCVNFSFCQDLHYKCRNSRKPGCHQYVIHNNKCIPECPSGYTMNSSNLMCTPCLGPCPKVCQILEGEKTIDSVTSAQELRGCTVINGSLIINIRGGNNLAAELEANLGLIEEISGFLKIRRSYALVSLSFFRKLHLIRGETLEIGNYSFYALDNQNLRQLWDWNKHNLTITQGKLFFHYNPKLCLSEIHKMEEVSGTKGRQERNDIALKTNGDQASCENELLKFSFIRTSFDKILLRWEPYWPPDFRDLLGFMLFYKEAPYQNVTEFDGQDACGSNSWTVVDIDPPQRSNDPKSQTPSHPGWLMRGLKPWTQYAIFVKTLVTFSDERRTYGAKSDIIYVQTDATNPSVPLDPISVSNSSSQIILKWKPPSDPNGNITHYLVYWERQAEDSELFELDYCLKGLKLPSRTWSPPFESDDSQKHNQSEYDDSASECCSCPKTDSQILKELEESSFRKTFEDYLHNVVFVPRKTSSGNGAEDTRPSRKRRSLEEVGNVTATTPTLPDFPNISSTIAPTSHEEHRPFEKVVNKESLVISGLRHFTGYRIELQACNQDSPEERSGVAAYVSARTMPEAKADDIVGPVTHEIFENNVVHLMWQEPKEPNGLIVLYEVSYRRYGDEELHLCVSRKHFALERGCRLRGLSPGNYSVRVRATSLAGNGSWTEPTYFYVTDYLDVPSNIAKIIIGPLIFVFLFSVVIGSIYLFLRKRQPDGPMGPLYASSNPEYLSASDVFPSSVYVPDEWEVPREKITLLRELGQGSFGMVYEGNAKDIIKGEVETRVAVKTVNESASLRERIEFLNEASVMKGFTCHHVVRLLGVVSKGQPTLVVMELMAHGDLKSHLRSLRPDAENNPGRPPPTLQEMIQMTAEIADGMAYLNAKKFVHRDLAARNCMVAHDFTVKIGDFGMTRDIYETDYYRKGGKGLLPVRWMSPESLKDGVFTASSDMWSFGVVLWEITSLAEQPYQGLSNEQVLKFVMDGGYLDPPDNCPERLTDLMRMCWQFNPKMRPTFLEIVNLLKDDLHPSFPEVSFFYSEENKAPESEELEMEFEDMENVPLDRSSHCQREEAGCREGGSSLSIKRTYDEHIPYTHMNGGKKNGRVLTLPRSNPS

- hIR-B-phosphorylation [EC50 nM] mean [1]: 466 nM
- hIR-A phosphorylation [EC50 nM] mean [2]: 449 nM
- Rat IR phosphorylation [EC50 nM] mean (Rat IR): 370 nM
- Pig IR phosphorylation [EC 50 nM] mean (Pig IR): 73.1 nM
B1: scl-Fc fusion protein INS024 (Fc fusion)
chain: SFVNQHLCGSHLVEALELVCGERGFHYTPKTGSYPGGVGIVEQCCTSICSLEQLENYCGGEAEDLQVGQVELGGGPGAGSLQPEGSLQ[letters of human IgG1 Fc with changes left out]

Reference: patent US20260248892A1 (Sanofi, published 2026)
